In all, about 220,000 compounds went through this assay and about 2,300 (1%) were called active. Inconclusive means that the source gave no clear call. Such entries were picked first, then a sample of the others. The call rests on the fitted dose curve; in most records, active means well fitted inhibition curve with a large enough effect; inconclusive means small, poorly fitted or top-dose-only effect, or effect the other way; inactive means no such curve, though single readings can be large or run the other way. Potencies of inconclusive entries are left out as doubtful fits.
What follows are compounds tested against Neuropeptide S receptor (Homo sapiens) (UniProt Q6W5P4) (assay: qHTS Assay for Antagonists of the Neuropeptide S Receptor: cAMP Signal Transduction). Conditions: CHO-NPSR cells, cAMP TR-FRET, antagonist mode; series mostly up to 38.3 µM.
Sequence of UniProt Q6W5P4 (Q6W5P4 whole entry, looked up): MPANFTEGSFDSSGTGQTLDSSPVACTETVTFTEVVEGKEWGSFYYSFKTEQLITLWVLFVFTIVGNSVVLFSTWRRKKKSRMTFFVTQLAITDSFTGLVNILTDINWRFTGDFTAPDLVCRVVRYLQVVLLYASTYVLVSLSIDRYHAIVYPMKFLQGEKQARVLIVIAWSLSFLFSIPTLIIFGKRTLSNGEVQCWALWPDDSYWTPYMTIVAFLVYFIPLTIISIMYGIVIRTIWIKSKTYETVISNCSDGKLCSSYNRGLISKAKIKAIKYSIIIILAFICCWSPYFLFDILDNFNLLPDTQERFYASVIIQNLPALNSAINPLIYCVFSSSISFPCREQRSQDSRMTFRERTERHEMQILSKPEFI
For `Cc1ccc(-c2nnn(CC(=O)N(Cc3ccco3)C(C(=O)NC3CCCC3)c3cccs3)n2)o1` (stereo unspecified), the Potency was “inactive”. `Cc1cccc(NC(=O)CSc2nc(COc3ccccc3)nc3ccccc23)c1C` was tested, and the Potency was inconclusive [inhibitor, single point]. In the case of `N#Cc1cnn2c1nc(N1CCCCC1)c1ccccc12`, the Potency was inconclusive [activator, single point]. With `CCOc1cc(NC(=S)NCCCN2CCOCC2)c(OCC)cc1NC(=O)CC(C)C` the Potency was “inactive”. In the case of `CC1CCCC(NC(=O)NC(=O)CCl)C1C` (stereo unspecified), the Potency was “inactive”. `O=C(CN1CCCCC1)Nc1c2c(nc3ccccc13)N(c1ccccc1)CC2` was tested, and the Potency was active: 7.94 µM. With `CCN(C(=O)CSc1nnc(Cc2ccccc2F)n1N)C1CCS(=O)(=O)C1` (stereo unspecified) the Potency was inconclusive [inhibitor, single point]. In the case of `CCOc1ccc(C(=O)NCC(C)C)cc1`, the Potency was inconclusive [inhibitor, single point]. In the case of `COc1ccc(-n2c(SCC3CNC(=O)O3)nnc2-c2ccc(Cl)cc2)cc1` (stereo unspecified), the Potency was “inactive”. In the case of `CCn1c(=O)cc(SCC(=O)Nc2ccc3c(c2)OCCO3)c2ccccc21`, the Potency was inconclusive [inhibitor, single point]. With `CC(C)CNC(=S)NC1CC2CCC(C1)N2Cc1ccccc1` (stereo unspecified) the Potency was “inactive”. With `O=C(Nc1ccccc1)Nc1ncc([N+](=O)[O-])s1` the Potency was “inactive”. For `Cc1[nH]n(-c2ccccc2)c(=O)c1/C=C1\C=NN=C1c1ccccc1`, the Potency was inconclusive [inhibitor, single point]. In the case of `C=CCNC(=S)NNc1nc(Nc2ccccc2)nc(N2CCCCC2)n1`, the Potency was inconclusive [activator, single point]. With `CCN(CC)C(=S)Nc1ccc(OC)cc1` the Potency was “inactive”. With `C=CCNC(=O)c1ccc(-c2cccc([N+](=O)[O-])c2)o1` the Potency was “inactive”. With `CCOc1ccc(NC(=O)CN2CCN(CC(=O)Nc3ccc(Cl)c(C(F)(F)F)c3)CC2)cc1` the Potency was “inactive”. For `Cc1ccc(CN(C(=O)CNC(=O)c2cccs2)C(C(=O)NCC2CCCO2)c2ccccc2)cc1` (stereo unspecified), the Potency was inconclusive [inhibitor, full curve, poor fit]. In the case of `CN(c1ccccc1)S(=O)(=O)c1ccc(NC(=O)c2ccc(-c3ccccc3)cc2)cc1`, the Potency was “inactive”. With `O=C(Nc1nnc(C2CC2)s1)c1cc2c(s1)CCCCCC2` the Potency was inconclusive [inhibitor, partial curve]. `CCOc1ccc(NC(=O)c2cn(-c3ccc(OCC)cc3)c(=O)c3cc(OC)c(OC)cc23)cc1` was tested, and the Potency was inconclusive [inhibitor, single point]. With `COc1ccc(CNC(=O)CSc2nn3c(=O)c(C(C)(C)C)nnc3s2)cc1OC` the Potency was “inactive”. `CCN(CC)C(=O)C1CCN(S(=O)(=O)c2ccc(C3CNC(=O)C3)cc2)CC1` (stereo unspecified) was tested, and the Potency was “inactive”. `CC(=O)/C(N=Nc1cc2c(c([N+](=O)[O-])c1C)C(C)(C)CC2(C)C)=C(\C)O` was tested, and the Potency was inconclusive [activator, partial curve]. `CCc1ccc2c(c1)cc(CN(C(=S)Nc1ccccc1Cl)C1CC1)c1nnnn12` was tested, and the Potency was inconclusive [activator, single point]. With `CC(C)(C)C1=Nn2c(nnc2-c2n[nH]c3c2CCC3)SC1` the Potency was “inactive”. For `C=CCOC(=O)C1=C(C)OC(N)=C(C#N)C1c1c(C)nn(-c2ccccc2)c1Cl` (stereo unspecified), the Potency was inconclusive [inhibitor, partial curve]. `COC(=O)c1cccc(NC(=O)Cn2nnc3ccccc32)c1` was tested, and the Potency was inconclusive [inhibitor, full curve]. For `O=C(CCN1CCN(c2ccccc2F)CC1)Nc1ccccc1F`, the Potency was “inactive”. In the case of `CCOC(=O)N1CCC(Nc2c(-c3ccc(C)c(C)c3)c(=O)c2=O)CC1`, the Potency was inconclusive [inhibitor, single point]. For `Cc1cc(C(=O)Cn2c(CO)nc3ccccc32)c(C)n1C`, the Potency was inconclusive [activator, single point]. In the case of `Cc1ccccc1Nc1nc(N)nc(CSc2n[nH]c(N)n2)n1`, the Potency was inconclusive [activator, single point]. For `CCCOC(=O)c1ccc(NC(=O)c2cc(OC)c(OC)c(OC)c2Br)cc1`, the Potency was inconclusive [inhibitor, single point]. With `O=C(NCc1ccc2c(c1)OCO2)c1ccc(COc2cccc(Cl)c2)o1` the Potency was inconclusive [inhibitor, single point]. For `CCOC(=O)C1CCCN(S(=O)(=O)c2ccc(S(N)(=O)=O)cc2)C1` (stereo unspecified), the Potency was “inactive”. With `COc1cc(NC(=O)c2cccs2)c(C(=O)OCC(=O)NC(=O)NC(C)(C)C)cc1OC` the Potency was “inactive”. `CCC(CC)C(=O)OCC(=O)Nc1cccc(S(=O)(=O)N(C)c2ccccc2)c1` was tested, and the Potency was inconclusive [inhibitor, single point]. With `N=C(CC1CC(=O)NC(=O)C1)C1=C(O)CCCC1=O` the Potency was inconclusive [inhibitor, single point]. With `CCCS(=O)(=O)N1CCN=C1SCc1cccc(C)c1` the Potency was “inactive”. With `Cc1ccc(Nc2c([N+](=O)[O-])cc(C(=O)N3CC(=O)Nc4ccccc43)cc2[N+](=O)[O-])c(C)c1` the Potency was inconclusive [inhibitor, single point]. `Cn1ccnc1Sc1nc(Nc2cccc(Cl)c2)nc(N2CCOCC2)n1` was tested, and the Potency was inconclusive [inhibitor, partial curve, poor fit]. For `Cc1oc(-c2ccc(Cl)cc2)nc1CN1CCC(C(=O)NCc2cccs2)CC1`, the Potency was inconclusive [inhibitor, single point]. For `c1ccc(-c2nc(N3CCCCCC3)c3ccccc3n2)nc1`, the Potency was “inactive”. With `Cc1nn(-c2ccccc2)c(/N=C/c2ccc(O)cc2)c1-c1ccccc1` the Potency was inconclusive [inhibitor, single point]. For `Fc1ccc(CSc2nnc(-c3cccs3)o2)cc1`, the Potency was inconclusive [inhibitor, partial curve]. `C/C(Cl)=C\Cn1c(O)c(N=NC(N)=S)c2ccccc21` was tested, and the Potency was inconclusive [activator, single point]. In the case of `Cc1ccccc1N1CCN(c2ncnc3scc(-c4cccs4)c23)CC1`, the Potency was inconclusive [inhibitor, single point]. For `CC(=O)c1ccc(NC(=S)N2CCC(Cc3ccccc3)CC2)cc1`, the Potency was inconclusive [inhibitor, single point]. `O=C1CCSc2ccc(Cl)cc2N1Cc1cccc(Cl)c1` was tested, and the Potency was inconclusive [inhibitor, single point]. `CN(C)/C=C(\C#N)C(=O)c1cccc(Oc2ccc(Br)cc2)c1` was tested, and the Potency was inconclusive [inhibitor, single point]. For `O=C(COc1ccc(F)cc1)Nc1ccc(-n2cnnn2)cc1`, the Potency was inconclusive [inhibitor, partial curve, poor fit]. With `C/C(CC(=O)Nc1cccc2c1CCCC2)=N\NC(=O)c1ccccc1N` the Potency was “inactive”. For `CC(C)OC(=O)CSc1nc(Cc2ccccc2)nc2ccccc12`, the Potency was “inactive”. For `N#CCc1c(C#N)c(N)nc(Nc2ccccc2)c1C#N`, the Potency was inconclusive [inhibitor, single point]. With `N#Cc1ccsc1NC(=O)CN(Cc1ccccc1)Cc1ccccc1` the Potency was inconclusive [inhibitor, single point]. `N#C/C(C(=O)N1CCCCC1)=C1\Nc2ccccc2S1` was tested, and the Potency was “inactive”. For `O=C(CCCCl)NC(=S)Nc1cc(C(F)(F)F)ccc1N1CCOCC1`, the Potency was inconclusive [inhibitor, single point]. In the case of `CCOC(=O)c1c(-c2ccc(C)o2)csc1NC(=O)CN1CCCCC1`, the Potency was inconclusive [inhibitor, single point]. With `Clc1ccccc1-c1nnc2sc(-c3ccc4c(c3)OCO4)nn12` the Potency was inconclusive [inhibitor, partial curve]. With `O=C(CSc1nnnn1-c1ccccc1)N1CCc2ccccc2C1` the Potency was “inactive”. For `CCOc1ccccc1CN(Cc1ccco1)S(=O)(=O)c1ccc(-n2cnnn2)c(OC)c1`, the Potency was inconclusive [inhibitor, partial curve]. `COc1ccc(S(=O)(=O)N2CCC(C(=O)Nc3ccccc3C)CC2)c2cccnc12` was tested, and the Potency was “inactive”. `COC(=O)C(Cc1ccc(O)cc1)NC(=O)CCC(=O)Nc1ccc(S(N)(=O)=O)cc1` (stereo unspecified) was tested, and the Potency was inconclusive [inhibitor, single point]. With `COc1ccccc1C(=O)Oc1cc(N)n(S(=O)(=O)c2ccc(C)cc2)n1` the Potency was inconclusive [activator, partial curve]. With `COc1cccc(NS(=O)(=O)c2c(C)n(C)c(=O)n(C)c2=O)c1` the Potency was inconclusive [activator, partial curve]. With `CC(C)c1cccc(O)c(=O)c1` the Potency was “inactive”. In the case of `Cc1ccccc1OCCN(C#N)c1nc(N(C)C)nc(N(C)C)n1`, the Potency was inconclusive [activator, single point]. `COc1cc(C)nc(N(Cc2ccccc2)S(=O)(=O)c2ccccc2)n1` was tested, and the Potency was inconclusive [inhibitor, single point]. For `N#Cc1c(N)nc2c3c(sc(=N)c2c1N)NC(=O)CC3c1c(F)cccc1Cl` (stereo unspecified), the Potency was inconclusive [activator, single point]. `C=CCNC(=O)c1ccccc1NC(=O)c1ccc(Cl)c(S(=O)(=O)Nc2ccccc2)c1` was tested, and the Potency was inconclusive [inhibitor, single point]. For `COC(=O)c1cccc(Cn2c(Cl)c(/C=N/NC(=O)c3ccccc3Cl)sc2=O)c1`, the Potency was inconclusive [inhibitor, single point].

— PubChem BioAssay AID1461 (National Center for Advancing Translational Sciences (NCATS), 2008)
Further: nearly all actives have a fitted effect of over 50% in size.
Potency means the concentration at half of the fitted maximal effect; tags describe the fitted curve by direction and shape.
